# Experimental data taken from PubChem BioAssay (Tox21).
# Values joined by “and” are separate entries in the source; they are usually repeats but may differ in a detail not shown here. Equal entries are not always repeated. This list was built around the results that the source calls inconclusive (neither active nor inactive); the mix of calls is not that of the screen. A potency beside an inconclusive call is a rough fit, not a confirmed value. Some structures have more than one record in an assay (separate samples or runs), and their calls can disagree. Active and inactive are the calls of the source. The call rests on the fitted dose curve; in most records, active means well fitted cell-killing curve with a large enough effect in the repeat runs; inconclusive means weak or mixed curves, or effect the other way; inactive means no such curve, though single readings can be large or run the other way.
# Assay: qHTS assay to identify small molecule antagonists of the thyroid receptor (TR) signaling pathway - cell viability counter screen (AID 743064); further: nearly all actives have a fitted effect of over 50% in size
# Details: GH3.TRE-Luc viability, CellTiter-Fluor, 24 h; activity change, negative = cytotoxic: at 70.3 µM (top of the series) unless noted
# How it was run: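 Compounds were tested on GH3.TRE-Luc cells in the presence of T3 at 1 nM final. Following 23.5 h at 37 °C, cell viability was quantified by CellTiter-Fluor.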
# On the % scale 0 is the no-effect control and ±100 the full control effect; potency means the concentration at half of the fitted maximal effect; tags describe the fitted curve by direction and shape.
Structure (SMILES),Potency,"activity change, negative = cytotoxic"
CCOC(=O)C1(c2ccccc2)CCN(CCC(C#N)(c2ccccc2)c2ccccc2)CC1,"inconclusive: 13.3 µM [cytotoxic, partial curve, poor fit] and inconclusive: 16.8 µM [cytotoxic, partial curve]",–
CCCCCCCCn1cc[n+](C)c1,"inconclusive: 76.4 µM [cytotoxic, single point] and inconclusive: 61.6 µM [cytotoxic, single point] and inconclusive: 77.7 µM [cytotoxic, single point]",–
Clc1ccc(CSC(Cn2ccnc2)c2ccc(Cl)cc2Cl)cc1 (stereo unspecified),"inconclusive: 14.3 µM [cytotoxic, single point]",–
CO/C=C(/C(=O)OC)c1ccccc1Oc1cc(Oc2ccccc2C#N)ncn1,active: 33.6 µM,–
CCCC[n+]1ccc(C)cc1,active: 30.5 µM,–
Oc1c(Br)c(Br)c(Br)c(Br)c1Br,"inconclusive: 19.4 µM [cytotoxic, partial curve]",–
CC1(c2ccc(Oc3ccccc3)cc2)OC(=O)N(Nc2ccccc2)C1=O (stereo unspecified),"inconclusive: 69 µM [cytotoxic, partial curve, poor fit]",–
Cc1cc(C(C)(C)c2ccc(O)c(C)c2)ccc1O,–,inactive: -4.89%
CCOP(=S)(OCC)Oc1cc(C)nc(N(CC)CC)n1,–,inactive: -20.8%
C=CC(=O)NCNC(=O)C=C,inconclusive: 60.9 µM,–
CCCC1COC(Cn2cncn2)(c2ccc(Cl)cc2Cl)O1 (stereo unspecified),"inconclusive: 62.3 µM [cytotoxic, partial curve]",–
